From the supplement of paper PMC10126150
Values marked as one replicate rest on one cluster of the flow cell; about a third of the high ones do not repeat.

System: ATP
Assay: switch fluorescence ratio, 500 uM ATP over buffer (Cy3 cluster intensity, sum of 5 cycles each) (fold (ratio)); higher = stronger signal-on switching upon ATP binding; sequences stand for … in TCGTCGGCAGCGTCAGATGTGTATAAGAGACAGTTTTTTTTTTTTTTTTTTTTTTTTT…TC
Settings: aptamer strand: ATP DNA aptamer (quencher-CACCTGGGGGAGTATTGCGGAGGAAGG + anchor), 100 nM annealed; ATP concentration: 500 uM; one replicate
Summary of the method: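 Cy3-labelled switching-strand clusters on a modified Illumina MiSeq flow-cell were annealed to 100 nM quencher-labelled ATP aptamer and imaged first in selection buffer, then after 15 min with 500 uM ATP at 22 °C. NaOH stripping and re-annealing separated each of five buffer/ATP cycles, and clusters outside 100-1000 RFU were excluded. The fluorescence ratio sums target-cycle Cy3 intensity over buffer-cycle Cy3 intensity per cluster and averages it per switch-domain sequence.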
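Also: ATP exposure 15 min at 22 °C before imaging.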

Sequence | switch fluorescence ratio
CATCATACGG | 1.02
CGGGGTACTA | 1.1
CCCGAAAAAA | 3.24
ACTCAGCTTA | 1.62
GTGTTTATTG | 0.956
TGCCCTATGT | 1.01
TGGTCACCCC | 1.04
CCTTAGCGCA | 2
TTGACCCGCT | 3.37
GTGATTTGAT | 0.965
AATTGTTACT | 1.02
AGCGCACACG | 1.08
CGGATTCGGT | 1.01
GGAATTACTA | 0.954
CTTCGCAGGT | 2.88
ATCGCGGGA | 0.913
TTAGGCCTGG | 0.983
TTTCCATTCA | 1
ACAGTTATAC | 1.29
TATTTGGTG | 0.99
AAACGACGCC | 1.14
CTAAGTGTTA | 0.986
TGGTAATTGC | 1.02
TGTTCACCT | 1.02
TTTAACACGT | 1.01
TATGTCCGGT | 0.978

Sequence | switch fluorescence ratio
GAGAGCACAG | 1
AACCGACTTT | 1.12
GCCACAGTGT | 1.33
CAGAGTGCTA | 1.02
TGTTAACGTA | 1.02
ATGCTGATAT | 0.993
AGGTTTTCGA | 0.951
TCACCGGCGT | 1.01
GCCTGTGCCT | 1.04
CGGATAGGCC | 0.964
GACGATAGGA | 1.07
TGACCGGGAA | 1.06
TTTGCTGAAT | 1.56
TGATTGCTTA | 0.968
CCGCGTCCTG | 1.17
CCGGGGGGA | 1.12
CGGAGTCGCA | 1.02
GGAAGCCGGG | 1.18
GAGCGTTTGA | 0.98
GCGGTAACCG | 0.98
AAACATCTTC | 0.991
CTAATTCTTC | 0.993
ACTGTTTGCG | 1.01
TATGGCCAAG | 1.01
CCAGGGGGCG | 0.976
TCCACATACG | 2.91

Sequence | switch fluorescence ratio
TATGGAAGTG | 0.96
ATATGTGCGA | 0.988
ATCATGCTAT | 1.02
AGCTAGAAGG | 0.978
TGGACGCATC | 2.6
TGACTATATG | 0.907
TGCTGTGCTC | 1.04
AACACAAGAT | 1.06
GTTGTAGGG | 1
CGTAAAACCT | 1.84
GGCCCGTCTT | 1.11
TTGCCCGCTG | 1.12
CACCTCATCA | 1.05
ATTATTGCGG | 1.01
ATCGCACCCG | 1.03
TTTCACCGGC | 1.03
CGTTAGAGGC | 1.01
GACCAAGTAT | 0.989
TATCGATTTG | 1.01
GGTCTCTCAG | 0.983
TCGGCATGT | 0.994
ATTCCGAGCT | 1.9
AGCCTTAATG | 0.954
GAAGGTCTAC | 1.09
GCTTGTCCAG | 0.963
AAAAGAGCTC | 1.01

Sequence | switch fluorescence ratio
TTGCGATTCT | 0.985
AGATTAAAGG | 0.999
CGCCATGGAG | 0.993
ATAAATCTGC | 0.997
GTGGGGAATT | 1.01
AGAGGACCTT | 1.15
AAAGACACGG | 1.09
ACGGCCCCGA | 1.03
GACCCGAACT | 1.05
ACATCAACGC | 1.12
CGTTGCGTAG | 1.06
GTTTGTTGCA | 1
ATGAGTCTGT | 1.04
TCTGGAACAA | 1.61
GGATTTCTTG | 0.998
TAGCGAGTGA | 1.03
GGCCTCCCAC | 1.69
TTGCGAAGAC | 1.22
GCGGATGAGG | 0.921
CCGACAGGCT | 1.25
AAACAGAAGG | 1.01
GGCGGACGCG | 0.969
TGGCTGGTCG | 0.983
ACGTTCTTGC | 0.962
TCGGGGGCC | 1.01
AGAAAATGTT | 0.968

Sequence | switch fluorescence ratio
CGTCCTCGAC | 1.02
CGCTCTTGTG | 0.991
GATCGCCATC | 1.26
TAGCTCCATC | 1.05
AGGGATAGTG | 0.97
CATTCGGCCA | 1.03
GAAGGGTTAA | 1.05
ACGCAAGTT | 1.14
CTTGACAGT | 0.996
CGGGAATTC | 1.03
TTTGCGGAGT | 1.06
CAACTAGGG | 0.985
AAAGCGGCG | 0.991
AAAGGACTAT | 0.958
TATGGTGCAC | 0.989
TGCGGATCGT | 1.02
GAAGTCGACC | 0.979
GTTGTTTTAT | 0.981
ATCACAGCAA | 2.4
TCATGAGGTT | 1.01
TAGAAAGG | 0.978
ATATCAGCAC | 1.03
GGCCGGAGAA | 0.959
AGGAGGTACG | 0.99
GACGGATGGC | 0.948
ACTTGCGCGC | 1.02

Sequence | switch fluorescence ratio
TTTCTAAGGC | 0.964
GGTCTTGCGG | 0.957
TCTGATGCTC | 1.41
GATGAACAGC | 0.948
TCATCCAAAT | 1.26
GTGTGCCTTG | 0.97
TATTTGGAAG | 1.06
TTATCGGGGA | 1.03
GAGCATACGT | 1.25
AGAGATTTTA | 1
AAGTACGTCA | 1.2
ATGCGAGAGT | 0.999
GGTGAGATTG | 1
TGTTGTAGGT | 0.902
AATAGTTT | 0.946
GTTCTGAGTA | 1.02
TCGCATTAAG | 2.87
GCCAACCGGT | 0.952
GAGACGTGAA | 1
GAGGCAATG | 2.89
GCTTCGTCCC | 1.48
TGCCACGTAC | 2.22
AAGCCCGCTA | 1.06
GGGGGTGCGC | 1.01
AATGGAAAAA | 0.999
TGCGCATACA | 1.18

Sequence | switch fluorescence ratio
TAAGTTCC | 1.92
AACCCTACAA | 1.05
TTCCCGTTAG | 1.38
TAGAATCGTA | 1.01
CGTTACCGTA | 1.03
GGGCTATGGC | 1.04
GCACTGTGCT | 0.991
GTAATTTGCC | 0.984
TCACGGAAAT | 1
AGGCCATCGC | 1.03
CCAATATGGA | 1.05
GGCAGAGTAG | 0.968
CCGTGCCCTC | 1.22
GGTATAAGAC | 1.01
GTTGTCGCCG | 1.01
GTTGCGGATG | 0.967
CATTATATTA | 0.97
TACAACCCTG | 1.02
CTCCTCTTTA | 1.09
TATCTGAGAG | 0.941
GGTAGCGTTC | 1.06
GGTCGAATAC | 2.42
GACACACCGT | 1.27
CACCGGCCCT | 1.09
TGGAGCTGCG | 1.04
TTCCCATCGT | 0.969

Sequence | switch fluorescence ratio
CCTTACCCGG | 2.36
TCTGTTTT | 0.948
GCTGCGCCTC | 1.39
TGGGGTTCG | 1.02
CAACTTGATG | 0.982
CATGCTATCA | 0.986
TTGTGTAGCA | 1.01
GATACCGCGA | 4.76
TGCACGCT | 1.03
ACATCATTAA | 1.01
AGAAAAGCCG | 0.952
TTAACCAGGA | 0.999
GGCAGTTAGC | 1.02
ACGATAAAGG | 1.08
CAATGACGAT | 1.04
TCGGGCCAGA | 0.969
TAGGTTGCAC | 0.99
ATTTATGCTA | 1.01
CGAGTTGAGC | 1.01
